# Data reported in the supplement of paper PMC4604168 (melanoma cell lines).
# Some of the results follow. Single values are uncertain, as repeats are few or missing.
# Legend:
# Assay in all cases: cell count relative to DMSO control; melanoma cells; higher = more viable cells
# Details in all cases: library dose: standard library concentration; 72 h
# G361 = system: G361
# IPC-298 = system: IPC-298
# IST-MEL1 = system: IST-MEL1
# LB2518-MEL = system: LB2518-MEL
# LOXIMVI = system: LOXIMVI
# MEL-HO = system: MEL-HO
# MZ2-MEL = system: MZ2-MEL
# MeWo = system: MeWo
# RPMI7951 = system: RPMI7951
# RVH-421 = system: RVH-421
# SkMel28 = system: SkMel28
# SkMel2 = system: SkMel2
# SkMel30 = system: SkMel30
# SkMel5 = system: SkMel5
# UACC257 = system: UACC257
# UACC62 = system: UACC62
# WM115 = system: WM115
# WM1716 = system: WM1716
# WM1745 = system: WM1745
# WM3526 = system: WM3526
# 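Further: cells treated in 1,536-well plates, then fixed and DAPI-stained, with nuclei counted from automated high-throughput microscope images.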
Compound,cell count (G361),cell count (IPC-298),cell count (IST-MEL1),cell count (LB2518-MEL),cell count (LOXIMVI),cell count (MEL-HO),cell count (MZ2-MEL),cell count (MeWo),cell count (RPMI7951),cell count (RVH-421),cell count (SkMel28),cell count (SkMel2),cell count (SkMel30),cell count (SkMel5),cell count (UACC257),cell count (UACC62),cell count (WM115),cell count (WM1716),cell count (WM1745),cell count (WM3526)
"C#Cc1cccc(Nc2ncnc3cc(OCCOC)c(OCCOC)cc23)c1 [erlotinib] + O=C(Nc1ccccc1)c1cc([N+](=O)[O-])ccc1Cl [GW9662] (first compound 4 µM, partner dose 10 µM)",73.4%,67.1%,106%,47.6%,67.9%,70.9%,58.4%,66.2%,59%,67.4%,50.4%,85.7%,80%,73.1%,80.9%,50.6%,47.6%,75%,48.2%,65.9%
"Cn1c(Nc2ccc(C(F)(F)F)cc2)nc2cc(Oc3ccnc(-c4ncc(C(F)(F)F)[nH]4)c3)ccc21 + CC1(C)NC(=O)N(c2ccc([N+](=O)[O-])c(C(F)(F)F)c2)C1=O [nilutamide] (first compound 0.4 µM, partner dose 5 µM)",25%,50.1%,82.1%,41.6%,55.7%,63.8%,66.5%,63.9%,59.7%,57.4%,35.8%,50.2%,64.6%,38.7%,79.9%,50.6%,27.1%,59.7%,42%,52.4%
"O=C(CCCCCCC(=O)Nc1ccccc1)NO [vorinostat] + Oc1cc(-c2nc(-c3ccccc3)[nH]c2-c2ccncc2)ccc1Cl [L779450] (first compound 0.4 µM, partner dose 1 µM)",47.1%,73%,94.6%,96.2%,112%,74.5%,99.4%,82.3%,60.1%,86.9%,30.2%,14.8%,84.4%,72.6%,83.2%,66.9%,67.8%,83.1%,63%,58.6%
"O=C(CCCCCCC(=O)Nc1ccccc1)NO [vorinostat] + O=C(Nc1cccc(Cl)c1)Nc1ncc(CCNc2ncnc3ccsc23)s1 [SNS314] (first compound 0.4 µM, partner dose 0.004 µM)",40%,66.4%,52.2%,59%,44.8%,69.9%,72.1%,48.1%,43.8%,65.9%,36.5%,76.2%,82.4%,57.8%,51.7%,77.2%,37.2%,39.9%,59.9%,60.7%
"COCC[n+]1c2c(n(Cc3cnccn3)c1C)C(=O)c1ccccc1C2=O + O=c1cc(-c2cccc3c2Sc2ccccc2S3)oc(N2CCOCC2)c1 [KU55933] (first compound 0.002 µM, partner dose 5 µM)",37.9%,42.5%,37.3%,7.92%,69.9%,72%,24.3%,26.6%,18.6%,89%,48.6%,28.9%,52.9%,30.5%,19.6%,51.4%,74%,63.2%,66.4%,27%
"Cn1c(Nc2ccc(C(F)(F)F)cc2)nc2cc(Oc3ccnc(-c4ncc(C(F)(F)F)[nH]4)c3)ccc21 + CCCCCCCCCCCC1=C(O)C(=O)C=C(O)C1=O [Embelin] (first compound 0.4 µM, partner dose 6 µM)",25.7%,45.4%,66.8%,50.8%,94.1%,57.7%,35.2%,51.9%,63.2%,42.4%,30.5%,53.5%,67.3%,33.8%,74.5%,49.5%,39.8%,60.4%,53.7%,43%
"C#Cc1cccc(Nc2ncnc3cc(OCCOC)c(OCCOC)cc23)c1 [erlotinib] + Cc1cc(N2CCOCC2)cc2[nH]c(-c3c(NC[C@@H](O)c4cccc(Cl)c4)cc[nH]c3=O)nc12 [BMS536924] (first compound 4 µM, partner dose 1 µM)",53.4%,52.4%,77.9%,54.2%,64.7%,59.3%,82%,61.3%,57.2%,60.9%,57.2%,58.3%,55.8%,46.2%,79.1%,71.9%,75.4%,103%,27.6%,52.4%
"Cn1c(Nc2ccc(C(F)(F)F)cc2)nc2cc(Oc3ccnc(-c4ncc(C(F)(F)F)[nH]4)c3)ccc21 + Oc1cc(-c2nc(-c3ccccc3)[nH]c2-c2ccncc2)ccc1Cl [L779450] (first compound 0.4 µM, partner dose 1 µM)",21.8%,43.1%,78.6%,32.5%,76.1%,66.6%,75%,47.9%,45.8%,52%,32.2%,3.89%,58.2%,30.7%,66%,40.3%,24%,50.8%,45.6%,28.1%
"O=C(CCCCCCC(=O)Nc1ccccc1)NO [vorinostat] + CCCCCCCCCCCC1=C(O)C(=O)C=C(O)C1=O [Embelin] (first compound 0.4 µM, partner dose 6 µM)",73.1%,67.8%,69.6%,74.4%,69.6%,73.5%,78.4%,87.4%,58%,76.4%,47.1%,81.1%,85.6%,73%,61.7%,90%,78.8%,108%,73.2%,75%
"O=C(CCCCCCC(=O)Nc1ccccc1)NO [vorinostat] + C=CCn1c(=O)c2cnc(Nc3ccc(N4CCN(C)CC4)cc3)nc2n1-c1cccc(C(C)(C)O)n1 [MK1775] (first compound 0.4 µM, partner dose 0.1 µM)",58.3%,67.9%,78.6%,63.7%,54%,74%,126%,82.1%,35.4%,113%,27.7%,62.7%,60.5%,59%,77.4%,68.5%,44.2%,78.6%,70.9%,65.8%
"O=C(CCCCCCC(=O)Nc1ccccc1)NO [vorinostat] + O=C(O)c1ccc(-c2c[nH]c3ncc(-c4ccccc4)cc23)cc1C1CCCC1 [GSK650394] (first compound 0.4 µM, partner dose 0.8 µM)",45.2%,73.3%,72.5%,97.4%,90.3%,65%,87.1%,67.7%,65.5%,82.3%,50.2%,55.6%,80.3%,65.3%,53.3%,63.2%,88.2%,73.4%,114%,66.7%
"C#Cc1cccc(Nc2ncnc3cc(OCCOC)c(OCCOC)cc23)c1 [erlotinib] + Cn1nnc2c(C(N)=O)ncn2c1=O [temozolomide] (first compound 4 µM, partner dose 10 µM)",64%,63.2%,71.2%,70.4%,77.9%,68.3%,71.9%,65.7%,51.7%,60.1%,37.6%,69.3%,50.9%,64.1%,98.5%,37.9%,63.6%,60.5%,64.3%,62.1%
"C#Cc1cccc(Nc2ncnc3cc(OCCOC)c(OCCOC)cc23)c1 [erlotinib] + COc1cc2c(Oc3ccc4[nH]c(C)cc4c3F)ncnc2cc1OCCCN1CCCC1 [cediranib] (first compound 4 µM, partner dose 2 µM)",84.6%,74.9%,105%,70.5%,48.4%,83.5%,104%,62.9%,72.5%,62.1%,94.7%,98.5%,77.4%,85.9%,87.6%,60%,66.9%,79%,60.1%,69.2%
"Nc1cccc2c1CN(C1CCC(=O)NC1=O)C2=O (stereo not given) [lenalidomide] + CO[C@@H]1[C@H](N(C)C(=O)c2ccccc2)C[C@H]2O[C@]1(C)n1c3ccccc3c3c4c(c5c6ccccc6n2c5c31)C(=O)NC4 [Midostaurin] (first compound 5 µM, partner dose 0.4 µM)",71%,81.8%,81.7%,94.9%,56.3%,88.1%,93.1%,82.2%,68.7%,94.4%,87.6%,74.9%,88.1%,57%,80.3%,62.3%,70.7%,57.9%,36%,81.7%
"Clc1ccc(Nc2nnc(Cc3ccncc3)c3ccccc23)cc1 [vatalanib] + COc1ccc(Cl)c(Nc2nc3ccccc3nc2NS(=O)(=O)c2cccc(NC(=O)C(C)(C)N)c2)c1 [XL147] (first compound 10 µM, partner dose 4 µM)",69.6%,62.2%,70.8%,86.8%,55.5%,60.7%,64.9%,55.9%,67.1%,90.8%,49.3%,66%,71.6%,61.4%,81.9%,60.7%,75.5%,68.8%,50%,65%
"Clc1ccc(Nc2nnc(Cc3ccncc3)c3ccccc23)cc1 [vatalanib] + COc1cc2c(Oc3ccc4[nH]c(C)cc4c3F)ncnc2cc1OCCCN1CCCC1 [cediranib] (first compound 10 µM, partner dose 2 µM)",84.9%,75.3%,80.8%,104%,70.9%,88.1%,73.4%,81.7%,60.1%,71.2%,77.9%,78.2%,78.6%,66.7%,87.7%,80.6%,88.5%,83.5%,42.5%,84.1%
"Cn1c(Nc2ccc(C(F)(F)F)cc2)nc2cc(Oc3ccnc(-c4ncc(C(F)(F)F)[nH]4)c3)ccc21 + NCC(=O)Nc1ccc(-n2nc(C(F)(F)F)cc2-c2ccc3c(ccc4ccccc43)c2)cc1 [OSU03012] (first compound 0.4 µM, partner dose 5 µM)",33.1%,49.3%,65.5%,43.8%,69.5%,68%,84.9%,72.7%,72.4%,54.2%,22.3%,21.8%,31%,26.1%,79.2%,51.4%,47.2%,58.6%,66.2%,36.6%
